# Among all 350,000 compounds or so, about 9,900 (2.8%) were called active. The shares of active, inactive and inconclusive entries below differ from those in the screen. Calls come from the whole dose curve; as a rule, active = well fitted activation curve with a large enough effect; inconclusive = small, poorly fitted or top-dose-only effect; inactive = no such curve, though single readings can be large or run the other way. No potency is given beside an inconclusive call; the fits are too rough.
# Assay: A quantitative high throughput screen for small molecules that induce DNA re-replication in MCF 10a normal breast cells. For activity, positive = re-replication: % of control where 0% means no effect. Note: nearly all actives have a fitted effect of over 50% in size.
# Conditions: MCF 10A DNA re-replication, Hoechst nuclear intensity, 48 h; activity, positive = re-replication: at 46.1 µM (top of the series)
# Potency is the fitted concentration of half-maximal effect; tags give direction and shape of the fitted curve.
SMILES,"activity, positive = re-replication",Potency
CCOc1ccc(Br)cc1S(=O)(=O)Nc1cccc(S(=O)(=O)Nc2ccccc2C(=O)O)c1,inactive: -0.435%,
CN(C)c1nc(N/N=C\c2ccc(Cl)c([N+](=O)[O-])c2)nc(Nc2ccc(F)cc2)n1,,"inconclusive [activator, single point]"
Cc1nc2c(cnn2-c2ccccc2Cl)c(=O)n1-c1ccc(C(C)C)cc1,,"inconclusive [activator, partial curve]"
Cc1cc(N/N=C/c2cccc([N+](=O)[O-])c2)nc(-n2nc(C)cc2C)n1,,"inconclusive [activator, partial curve]"
O=C(Nc1ccc(Cl)c(Cl)c1)c1ccc2c(c1)OCO2,,"inconclusive [activator, partial curve, poor fit]"
O=C(NC(=S)N1CCN(c2nc(-c3ccccc3)cs2)CC1)c1cccnc1,,"inconclusive [activator, single point]"
CC/C(=N\N=C1\SC(C)C(=O)N1Cc1ccco1)c1ccccc1 (stereo not drawn),,"inconclusive [activator, partial curve]"
CCCCC(=O)c1c(O)c2ccccc2oc1=O,,"inconclusive [activator, single point]"
CCN(CC)S(=O)(=O)c1cccc(NC(=O)CCNC(=O)NC23CC4CC(CC(C4)C2)C3)c1,,"inconclusive [activator, single point]"
CCOC(=O)/C(C#N)=C/c1cccc([N+](=O)[O-])c1,inactive: 1.05%,
O=C(Cc1ccccc1F)Nc1cc(S(=O)(=O)N2CCOCC2)ccc1N1CCCC1,,"inconclusive [activator, full curve]"
COc1c(Cl)cc(Cl)cc1C(=O)Nc1ccc(CN2CCOCC2)cc1,,"inconclusive [activator, partial curve, poor fit]"
COc1cccc(C(=O)NCC(=O)N/N=C/c2c(C)[nH]c3ccccc23)c1,,"inconclusive [activator, single point]"
Cc1ccc(C(=O)CSc2nnc(-c3ccc4[nH]c(C)c(C)c4c3)o2)cc1C,inactive: -1.11%,
Cc1noc(C)c1COC(=O)c1cccc(S(=O)(=O)N2CCCCCC2)c1,,"inconclusive [activator, partial curve, poor fit]"
CC(=O)c1cccc(NC(=O)CCc2nc3sc4c(c3c(=O)[nH]2)CCCC4)c1,,"inconclusive [activator, single point]"
Cc1ccc(S(=O)(=O)Nc2ccc(NC(=O)Nc3ccc(F)cc3F)cc2)cc1,,"inconclusive [activator, partial curve, poor fit]"
CCOc1ccc(/C=C/C(O)=C2/C(=O)NC3(C)CC2c2ccccc2O3)cc1OC (stereo not drawn),,active: 8.2 µM
COc1cc(/C=C/C(=O)c2ccc(NS(=O)(=O)c3ccc(C)cc3)cc2)cc(OC)c1O,,active: 18.4 µM
COC(=O)CN1C(=O)Nc2ccc(Br)cc2C1c1ccccc1Cl (stereo not drawn),,"inconclusive [activator, single point]"
COC(=O)Nc1ccc(=O)n(Cc2c(Cl)cccc2Cl)c1,inactive: -0.342%,
O=C(N/N=C/c1sc(N2CCOCC2)nc1-c1ccccc1)c1cccc(S(=O)(=O)N2CCOCC2)c1,,"inconclusive [activator, full curve, poor fit]"
COc1ccccc1Nc1nc(N)nc(CN2CCN(c3ccccc3)CC2)n1,,"inconclusive [activator, partial curve, poor fit]"

SMILES,"activity, positive = re-replication",Potency
CCc1nc2sc3ccccc3c(=O)c2c(=O)n1Cc1ccco1,,"inconclusive [activator, partial curve, poor fit]"
O=C1C=CC(=O)N1c1ccc(O)cc1,,active: 10.3 µM
c1ccc(Nc2nc(NCc3ccco3)c3ccccc3n2)cc1,,"inconclusive [activator, partial curve, poor fit]"
CC(=O)C1CCC2C3CCC4CC(=O)CCC4(C)C3C(C)(O)CC12C (stereo not drawn),inactive: 11.7%,
Cc1cc(C)n(C(=O)c2ccc([N+](=O)[O-])c(Cl)c2)n1,,"inconclusive [activator, single point]"
C[C@H](NC(=O)C1CCN(S(=O)(=O)c2ccccc2)CC1)C(=O)NCc1ccc(Cl)c(Cl)c1,inactive: 2.05%,
CCOc1cc(-c2nc3ccccn3c2NCC2CCCO2)ccc1O (stereo not drawn),,"inconclusive [activator, partial curve, poor fit]"
COc1ccccc1C(=O)NCC(=O)N/N=C/c1ccc([N+](=O)[O-])cc1,,"inconclusive [activator, single point]"
CCc1ccc(NS(=O)(=O)c2cccc3nsnc23)cc1,inactive: 5.54%,
C(=C\c1ccccc1)/C=N/Nc1nc2ccccc2[nH]1,,active: 4.61 µM
Cc1ccc(S(=O)(=O)N2[C@@H](c3ccc(C(C)(C)C)cc3)C(C(=O)O)=CC[C@H]2c2ccc(C(C)C)cc2)cc1,,"inconclusive [activator, single point]"
COc1ccccc1-c1nnc(SCC(=O)c2c(N)n(C3CC3)c(=O)[nH]c2=O)o1,inactive: 6.99%,
CCc1ccc(CN(C(=O)COc2c(C)cccc2C)C2CCS(=O)(=O)C2)cc1 (stereo not drawn),,"inconclusive [activator, single point]"
C[C@H](CO)N1C[C@H](C)[C@@H](CN(C)S(=O)(=O)c2cccs2)Oc2ccc(NS(=O)(=O)c3ccccc3)cc2C1=O,inactive: -0.385%,
COc1ccc(CNC(=O)c2ccc3ccccc3n2)cc1OC,inactive: 7.58%,
COc1cccc(/C=N/n2c(-c3ccco3)nc3ccccc3c2=O)c1,,"inconclusive [activator, single point]"
COCCCN1C(=O)N(c2ccccc2)C(=O)C1CC(=O)Nc1ccc(F)cc1 (stereo not drawn),inactive: 6.5%,
CCN(c1ccc(NC(=O)CSCc2c(C)noc2C)cc1)C(C)C,,"inconclusive [activator, single point]"
CC1CN(C(=O)c2cccc(COc3ccccc3Cl)c2)CC(C)O1 (stereo not drawn),,"inconclusive [activator, partial curve, poor fit]"
COc1ccc(C(CNC(=O)c2ccc(S(=O)(=O)N3CC(C)CC(C)C3)cc2)N(C)C)cc1 (stereo not drawn),,"inconclusive [activator, partial curve, poor fit]"
CCOc1ccc(S(=O)(=O)Nc2ccccn2)c2ccccc12,inactive: 2.19%,
NC(=O)/C=C/C(=O)Nc1ccc(Cl)cc1,,active: 14.6 µM
CC(C)=N/N=C1/NC(=O)C(Cc2ccccc2)S1 (stereo not drawn),,"inconclusive [activator, single point]"

SMILES,"activity, positive = re-replication",Potency
Cc1ccc(C2CC(=O)Oc3cc(O)ccc32)cc1 (stereo not drawn),,"inconclusive [activator, partial curve, poor fit]"
COC(C)(C)[C@H](O)COc1c2ccoc2cc2oc(=O)ccc12,inactive: -10.1%,
Cc1ccsc1/C=N/NC(=O)c1ccc2ccccc2c1,,"inconclusive [activator, single point]"
CSc1ccccc1NC(=S)N/N=C/c1cccn1Cc1cccc(C)c1,inactive: -0.276%,
NC(=O)COC(=O)c1ccc(Cl)c(S(=O)(=O)N(Cc2ccccc2)c2ccc(Cl)cc2)c1,,"inconclusive [activator, single point]"
COc1cccc(/C=N/NC(=O)C(=O)N2CCCCCC2)c1O,inactive: 9.06%,
CC1(C)Nc2ccc(O)cc2-c2c1ssc2=S,,"inconclusive [activator, single point]"
O=S(=O)(Nc1ccc(-c2csc(-c3ccccc3)n2)cc1)c1ccccc1,,"inconclusive [activator, single point]"
CC(=O)Nc1ccc(NC(=O)CSc2nnc(CC(C)O)n2-c2ccccc2)cc1 (stereo not drawn),,"inconclusive [activator, partial curve, poor fit]"
c1ccc(Sc2ncnc3ccccc23)cc1,,"inconclusive [activator, single point]"
CCCC(=O)NC(c1ccccc1)c1ccc2cccnc2c1O (stereo not drawn),,"inconclusive [activator, single point]"
O=C(/C(=C/c1ccncc1)n1ccnc1)c1ccc(Cl)cc1Cl,inactive: 3.34%,
CC(C)C[C@H](NC(=O)OC(C)(C)C)C(=O)N1CCC(C(=O)N[C@@H](Cc2ccccc2)C(=O)O)CC1,,"inconclusive [activator, single point]"
COc1ccc(Cl)cc1NC(=O)COC(=O)c1c(-c2ccccc2)noc1C,inactive: 1.29%,
Cc1ccc(NC(=O)C2CC(=O)N(Cc3ccccc3)C2)nc1 (stereo not drawn),inactive: -5.36%,
N#Cc1ccc(-c2ccc(OCC(O)CN3CCCCC3)cc2)cc1 (stereo not drawn),,"inconclusive [activator, partial curve]"
CC(C)CNC(=O)c1ccccc1NC(=O)CCSc1ccccc1,,"inconclusive [activator, single point]"
CCO[C@@H]1OC(C(=O)N2CCN(Cc3ccccc3)CC2)=C[C@H](c2cn(C(C)=O)c3ccccc23)[C@H]1CCCO,inactive: -2.26%,
Cc1noc(C)c1S(=O)(=O)N1CCCCC1,inactive: -6.06%,
COC(CN(C(=O)CCl)C(C(=O)NC1CCCCC1)c1ccc(C)cc1)OC (stereo not drawn),inactive: -6.04%,
O=S1(=O)c2cccc3cccc(c23)N1CCCN1CCN(c2ccc(F)cc2)CC1,,"inconclusive [activator, single point]"
Cc1ccc(-c2nc(C(=O)NCCCN3CCOCC3)cc3c2[nH]c2ccccc23)cc1,,"inconclusive [activator, single point]"

# — PubChem BioAssay AID624296 (National Center for Advancing Translational Sciences (NCATS), 2012)
